# Source: PubChem BioAssay AID180 (DTP/NCI, 2004)
# Certain results were filed several times, with different values. They are shown here; other results are not. The source may hold further records. The records of an entry repeat one measurement in other runs, samples, wells, individuals or studies.
# Test system: BDF1 mice, Adenocarcinoma 755 s.c., tumor weight T/C
# Test: NCI In Vivo Anticancer Drug Screen. Data for tumor model Adenocarcinoma 755 (subcutaneous) in B6D2F1 (BDF1) mice
# Conditions: endpoint: mean tumor weight, higher = larger tumour
# Procedure, shortened: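 Compound activity was tested in mice carrying transplanted tumors. Survival or tumor size was measured, and each value is the treated-group measurement divided by that of the vehicle-treated control group (T/C).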
# [1] = dose: 15.0 mg/kg/injection, schedule: Q01DX011 (ip), vehicle: methylcellulose (MC)
# [2] = dose: 30.0 mg/kg/injection, schedule: Q01DX011 (ip), vehicle: methylcellulose (MC)
# [3] = dose: 12.0 mg/kg/injection, schedule: Q01DX011 (ip), vehicle: saline
# [4] = dose: 0.75 mg/kg/injection, schedule: Q01DX011 (ip), vehicle: carboxymethylcellulose (CMC)
# [5] = dose: 1.5 mg/kg/injection, schedule: Q01DX011 (ip), vehicle: carboxymethylcellulose (CMC)
# [6] = dose: 3.0 mg/kg/injection, schedule: Q01DX011 (ip), vehicle: carboxymethylcellulose (CMC)
smiles,measurement,setting,value
[I][Hg][CH2]C1COC([CH2][Hg][I])CO1 (stereo not drawn),T/C,"dose: 7.5 mg/kg/injection, schedule: Q01DX011 (ip), vehicle: methylcellulose (MC)","43 % of control, 92 % of control, 99 % of control"
same,T/C,[1],41 % of control and 75 % of control
same,T/C,[2],"11 % of control, 27 % of control, 38 % of control"
same,T/C,"dose: 55.0 mg/kg/injection, schedule: Q01DX001 (ip), vehicle: carboxymethylcellulose (CMC)",75 % of control and 120 % of control
Nc1nc(=S)c2ncn(C3OC(CO)C(O)C3O)c2[nH]1 (stereo not drawn),T/C,"dose: 0.25 mg/kg/injection, schedule: Q01DX011 (ip), vehicle: carboxymethylcellulose (CMC)",32 % of control and 61 % of control
same,T/C,"dose: 0.83 mg/kg/injection, schedule: Q01DX011 (ip), vehicle: carboxymethylcellulose (CMC)","20 % of control, 95 % of control, 119 % of control"
same,T/C,"dose: 1.65 mg/kg/injection, schedule: Q01DX011 (ip), vehicle: carboxymethylcellulose (CMC)","5 % of control, 91 % of control, 98 % of control"
same,T/C,"dose: 3.3 mg/kg/injection, schedule: Q01DX011 (ip), vehicle: carboxymethylcellulose (CMC)","5 % of control, 90 % of control, 121 % of control"
same,T/C,"dose: 6.6 mg/kg/injection, schedule: Q01DX011 (ip), vehicle: carboxymethylcellulose (CMC)",75 % of control and 112 % of control
NCC(=O)Nc1ccc(O)cc1,T/C,"dose: 50.0 mg/kg/injection, schedule: Q01DX011 (ip), vehicle: carboxymethylcellulose (CMC)",31 % of control and 101 % of control
same,T/C,"dose: 100.0 mg/kg/injection, schedule: Q01DX011 (ip), vehicle: carboxymethylcellulose (CMC)",58 % of control and 110 % of control
CC1CN1P(=O)(N1CCCCC1)N1CC1C (stereo not drawn),T/C,[3],"18 % of control, 59 % of control, 88 % of control"
same,T/C,"dose: 24.0 mg/kg/injection, schedule: Q01DX011 (ip), vehicle: saline","3 % of control, 10 % of control, 42 % of control"
C=CC(COC(C)=O)N1CC1 (stereo not drawn),T/C,"dose: 7.5 mg/kg/injection, schedule: Q01DX011 (ip), vehicle: saline",36 % of control and 74 % of control
same,T/C,"dose: 15.0 mg/kg/injection, schedule: Q01DX011 (ip), vehicle: saline",49 % of control and 119 % of control
same,T/C,"dose: 30.0 mg/kg/injection, schedule: Q01DX011 (ip), vehicle: saline",18 % of control and 58 % of control
CCCn1cnc2c(=S)nc[nH]c21,T/C,"dose: 0.37 mg/kg/injection, schedule: Q01DX011 (ip), vehicle: carboxymethylcellulose (CMC)",66 % of control and 103 % of control
same,T/C,[4],68 % of control and 150 % of control
same,T/C,[5],32 % of control and 60 % of control
same,T/C,"dose: 2.0 mg/kg/injection, schedule: Q01DX011 (ip), vehicle: carboxymethylcellulose (CMC)",9 % of control and 35 % of control
O=C1NC(=O)C(c2ccc(Cl)cc2)(c2ccccc2Cl)N1 (stereo not drawn),T/C,"dose: 400.0 mg/kg/injection, schedule: Q01DX011 (ip), vehicle: saline",42 % of control and 78 % of control
CCC(=O)O[C@H]1CC[C@H]2[C@@H]3CC[C@H]4CC(=O)[C@H](C)C[C@]4(C)[C@H]3CC[C@]12C,T/C,"dose: 176.5 mg/kg/injection, schedule: Q01DX011 (sc), vehicle: steriod suspending solution",93 % of control and 185 % of control
same,T/C,"dose: 250.0 mg/kg/injection, schedule: Q01DX011 (sc), vehicle: steriod suspending solution",91 % of control and 119 % of control
O=C(O)Cn1cccc1,T/C,"dose: 1000.0 mg/kg/injection, schedule: Q01DX011 (ip), vehicle: other",67 % of control and 94 % of control
same,T/C,"dose: 2000.0 mg/kg/injection, schedule: Q01DX011 (ip), vehicle: other",52 % of control and 85 % of control
CS(=O)(=O)OCCCCCOS(C)(=O)=O,T/C,"dose: 12.5 mg/kg/injection, schedule: Q01DX011 (ip), vehicle: methylcellulose (MC)",35 % of control and 64 % of control
O=CCC(O)C(O)C(O)CO (stereo not drawn),T/C,"dose: 250.0 mg/kg/injection, schedule: Q01DX011 (ip), vehicle: carboxymethylcellulose (CMC)",55 % of control and 122 % of control
same,T/C,"dose: 500.0 mg/kg/injection, schedule: Q01DX011 (ip), vehicle: carboxymethylcellulose (CMC)",36 % of control and 99 % of control
same,T/C,"dose: 1000.0 mg/kg/injection, schedule: Q01DX011 (ip), vehicle: carboxymethylcellulose (CMC)",41 % of control and 167 % of control
CN(Cc1cnc2nc(NCNC(=O)C3=C(O)[C@@]4(O)C(=O)C5=C(O)c6c(O)cccc6[C@@](C)(O)[C@H]5C[C@H]4[C@H](N(C)C)C3=O)nc(N)c2n1)c1ccc(C(=O)NC(CCC(=O)O)C(=O)O)cc1 (stereo partly drawn),T/C,[3],29 % of control and 63 % of control
CSc1nc(C)c(Br)c(Sc2nc(N)nc3nc[nH]c23)n1,T/C,[5],"58 % of control, 83 % of control, 94 % of control"
same,T/C,[6],2 % of control and 36 % of control
CC(=O)[C@@]1(O)CC[C@H]2[C@@H]3C[C@H](C)C4=CC(=O)CC[C@]4(C)[C@H]3[C@@H](O)C[C@@]21C,T/C,"dose: 28.0 mg/kg/injection, schedule: Q01DX011 (sc), vehicle: steriod suspending solution","34 % of control, 50 % of control, 69 % of control"
same,T/C,"dose: 56.0 mg/kg/injection, schedule: Q01DX011 (sc), vehicle: steriod suspending solution","20 % of control, 50 % of control, 53 % of control"
same,T/C,"dose: 900.0 mg/kg/injection, schedule: Q01DX011 (sc), vehicle: steriod suspending solution",7 % of control and 97 % of control
O=S(=O)(O)c1cccnc1,T/C,"dose: 149.45 mg/kg/injection, schedule: Q01DX011 (ip), vehicle: carboxymethylcellulose (CMC)",84 % of control and 119 % of control
O=NN(CCCl)C(=O)NCCCl,T/C,"dose: 0.81 mg/kg/injection, schedule: Q01DX011 (ip), vehicle: saline",86 % of control and 156 % of control
same,T/C,"dose: 1.7 mg/kg/injection, schedule: Q01DX011 (ip), vehicle: carboxymethylcellulose (CMC)",32 % of control and 76 % of control
CCCOP(=S)(N1CC1C)N1CC1(C)C (stereo not drawn),T/C,[5],31 % of control and 123 % of control
same,T/C,[6],"33 % of control, 62 % of control, 74 % of control"
C[C@]12CCC(=O)C=C1CC[C@@H]1[C@@H]2[C@@H](O)C[C@@]2(C)[C@H]1CC[C@]2(O)C(=O)COC(=O)CCC(=O)O,T/C,"dose: 87.5 mg/kg/injection, schedule: Q01DX011 (sc), vehicle: steriod suspending solution",29 % of control and 82 % of control
same,T/C,"dose: 175.0 mg/kg/injection, schedule: Q01DX011 (sc), vehicle: steriod suspending solution",26 % of control and 61 % of control
same,T/C,"dose: 350.0 mg/kg/injection, schedule: Q01DX011 (sc), vehicle: steriod suspending solution",15 % of control and 42 % of control
CC(=O)OCC(=O)[C@@]1(O)CC[C@H]2[C@@H]3C[C@H](C)C4=CC(=O)CC[C@]4(C)[C@H]3[C@@H](O)C[C@@]21C,T/C,"dose: 11.0 mg/kg/injection, schedule: Q01DX011 (sc), vehicle: steriod suspending solution",41 % of control and 120 % of control
same,T/C,"dose: 22.0 mg/kg/injection, schedule: Q01DX011 (sc), vehicle: steriod suspending solution",30 % of control and 88 % of control
CCOC(=O)C(Cc1ccc(N(CCCl)CCCl)cc1)NP1(=O)NCCCO1 (stereo not drawn),T/C,"dose: 4.5 mg/kg/injection, schedule: Q01DX011 (ip), vehicle: saline",30 % of control and 104 % of control
same,T/C,"dose: 9.0 mg/kg/injection, schedule: Q01DX011 (ip), vehicle: saline",44 % of control and 87 % of control
same,T/C,"dose: 18.0 mg/kg/injection, schedule: Q01DX011 (ip), vehicle: saline",14 % of control and 62 % of control
O=C(O)c1cccc2c3c(cc([N+](=O)[O-])c12)CCCC3,T/C,[4],51 % of control and 101 % of control
COc1ccc(C[n+]2cc([O-])on2)cc1,T/C,"dose: 3.12 mg/kg/injection, schedule: Q01DX011 (ip), vehicle: carboxymethylcellulose (CMC)",29 % of control and 60 % of control
CN1CCC(CN2c3ccccc3Sc3ccccc32)CC1,T/C,"dose: 7.0 mg/kg/injection, schedule: Q01DX011 (ip), vehicle: methylcellulose (MC)",66 % of control and 96 % of control
same,T/C,[1],57 % of control and 111 % of control
same,T/C,[2],"27 % of control, 52 % of control, 83 % of control"
same,T/C,"dose: 60.0 mg/kg/injection, schedule: Q01DX011 (ip), vehicle: methylcellulose (MC)","27 % of control, 36 % of control, 66 % of control"
CN(C)[C@@H]1C(=O)C(C(=O)NCc2nc3[nH]cnc(=S)c3[nH]2)=C(O)[C@@]2(O)C(=O)C3=C(O)c4c(O)cccc4[C@@](C)(O)[C@H]3C[C@@H]12,T/C,"dose: 7.0 mg/kg/injection, schedule: Q01DX011 (ip), vehicle: carboxymethylcellulose (CMC)","8 % of control, 30 % of control, 47 % of control"
C1CN1c1nc(N2CC2)nc(N2CC2)n1,T/C,"dose: 156.0 micrograms/kg/injection, schedule: Q01DX011 (ip), vehicle: carboxymethylcellulose (CMC)",80 % of control and 123 % of control
same,T/C,"dose: 195.0 micrograms/kg/injection, schedule: Q01DX011 (ip), vehicle: carboxymethylcellulose (CMC)","58 % of control, 89 % of control, 90 % of control"
same,T/C,"dose: 390.0 micrograms/kg/injection, schedule: Q01DX011 (ip), vehicle: carboxymethylcellulose (CMC)","40 % of control, 69 % of control, 118 % of control"
